Reference: PubChem BioAssay AID1240 (Sanford-Burnham Center for Chemical Genomics, 2008)
Hit rate of the full screen: of about 50,000 compounds, about 800 (1.6%) showed an effect of 50% or more. The list shows a part of the results.

molecular target: Bcl-2-like protein 10 (Homo sapiens) (UniProt Q9HD36); assay: Phenotype converters, Bcl-B/TR3 peptide binding displacement, primary biochemical FP (AID 1240); settings: GST-Bcl-B / FITC-TR3 peptide fluorescence polarization; stronger effect = higher value; compound at 3.75 mg/L;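 note: 0% = Bcl-B with tracer peptide and DMSO and 100% = tracer peptide lacking Bcl-B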
UniProt Q9HD36, sequence (Q9HD36 whole entry, looked up): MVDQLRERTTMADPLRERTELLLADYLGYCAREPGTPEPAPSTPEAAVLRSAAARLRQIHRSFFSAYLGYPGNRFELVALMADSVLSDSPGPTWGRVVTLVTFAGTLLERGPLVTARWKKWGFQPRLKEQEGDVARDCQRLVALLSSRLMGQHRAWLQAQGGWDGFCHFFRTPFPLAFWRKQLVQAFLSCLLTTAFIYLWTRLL

SMILES	displacement
COc1cc(C(=O)NCCOc2ccccc2C)cc(OC)c1OC	13.4%
O=[N+]([O-])c1cccc(C(=S)N2CCOCC2)c1	14.1%
Cc1ccc(C(C)C)c(OCC(=O)Nc2c(C)cc(Br)cc2C)c1	-10.2%
COc1cccc(CN2CCN(S(=O)(=O)c3ccc(Cl)cc3)CC2)c1OC	-15%
CCOC(=O)c1ccccc1NC(=O)COc1ccc(Cl)cc1C	2.5%
CCOc1cc(/C=C2\SC(=S)N(Nc3ccccc3)C2=O)ccc1O	-4.5%
CC(=O)CC(O)(c1ccccc1)C(F)(F)C(F)F (stereo unspecified)	6.4%
O=C(Nc1ccccc1O)c1cc(S(=O)(=O)N2CCCCC2)ccc1Cl	-13.5%
Nc1ccc(Nc2ccncc2[N+](=O)[O-])cc1	19%
Cc1cccc(CN2CCN(S(=O)(=O)c3ccc(Cl)cc3)CC2)c1	-20.2%
CCc1cccc(C)c1NC(=O)COc1cccc(Cl)c1	-5%
Cc1ccc2nsnc2c1NC(=O)c1cc(I)ccc1Cl	10%
Cc1onc(-c2ccccc2Cl)c1C(=O)NCCC(c1ccccc1)c1ccccc1	7.3%
O=C(O)C1C(C(=O)NCCc2ccccc2)C2C=CC1C21CC1 (stereo unspecified)	-5.1%
CC(C)CC(=O)N1CCN(Cc2ccccc2C(F)(F)F)CC1	-11%
CCOC(=O)C1=C(c2ccccc2)N=c2s/c(=C\c3ccc(O)cc3)c(=O)n2C1c1cccs1 (stereo unspecified)	-0.5%
Clc1cc2c(cc1CSc1nc3ccccc3[nH]1)OCO2	-14.4%
COCCN1C(=O)C(=O)/C(=C(/O)c2ccccc2)C1c1ccccc1 (stereo unspecified)	-9.4%
N#C/C(=C\c1ccccc1Cl)c1nc(-c2cccs2)cs1	-9.2%
Cc1c(OCc2ccc(Cl)cc2)ccc2c3c(c(=O)oc12)CCC3	5.6%
Cc1onc(-c2ccccc2Cl)c1C(=O)Nc1c(C)n(C)n(-c2ccccc2)c1=O	-2.9%
CNC(=O)c1ccc(CN2CCc3ccccc3C2)cc1	11.3%
CCC(c1ccccc1)c1nnc(N)s1 (stereo unspecified)	4.5%

SMILES	displacement
COc1ccc(C2CC(=O)C3=C(C2)Nc2ccccc2NC3c2ccc(OC(C)=O)c(OC)c2)cc1OC (stereo unspecified)	-3.7%
CCCCNCCCCCCOc1ccc(C(C)C)cc1	11.7%
Cc1cccc(N2CCN(C(=S)c3ccc(OCc4ccccc4)cc3)CC2)c1	9%
CN1C(CC(=O)Nc2ccc(Br)cc2)c2ccccc2CC1(C)C (stereo unspecified)	0.7%
N#C/C(=C\c1cccs1)c1nc(-c2ccc(Br)cc2)cs1	5.9%
Cc1ccc(C(=O)/C=C/c2ccc(OCc3ccccc3)cc2)cc1	11.1%
COc1ccc(C2CC(c3ccc(F)cc3)=NN2c2ccccc2F)cc1OC (stereo unspecified)	-4.3%
O=C(O)c1ccc2c(c1)C(=O)N(c1cccc(C(F)(F)F)c1)C2=O	11.2%
CCN(CC)CCN1C(=O)C(O)=C(C(=O)/C=C/c2ccccc2)C1c1ccc([N+](=O)[O-])cc1 (stereo unspecified)	-19.8%
C/C(Cn1nnc([N+](=O)[O-])n1)=N/NC(=O)c1ccc(Cl)cc1	1.1%
CC1CCN(CCOCCOc2ccccc2Br)CC1	-8.9%
COc1ccccc1OCCn1cc(C=C2C(=O)N(C)C(=O)N(C)C2=O)c2ccccc21	3.5%
COc1ccc(N2COc3ccc4c5c(c(=O)oc4c3C2)CCC5)cc1	10.4%
O=C(O)c1ccc(Nc2nc(-c3ccc(Br)cc3)cs2)cc1	10.5%
Cc1ccc(OCC(=O)Nc2ccc(C)cc2[N+](=O)[O-])c(Br)c1	2.5%
O=C(Nc1ccc(Cc2ccncc2)cc1)c1cccc(Cl)c1	1.4%
COc1ccc(-n2c(C)nc3ncnc(-c4ccccc4)c32)cc1	-0.4%
CCC(=O)N1c2ccccc2NC2=C(C(=O)CC(C)(C)C2)C1c1ccc(N(CC)CC)cc1 (stereo unspecified)	-5.3%
O=C(NCc1ccccc1Cl)/C(=C\c1ccc([N+](=O)[O-])o1)NC(=O)c1ccccc1	-0.3%
COc1cccc(C2/C(=C(\O)c3ccc(F)cc3)C(=O)C(=O)N2CCCCCC(=O)O)c1 (stereo unspecified)	-2.3%
O=c1oc2cc(OCCc3ccccc3)ccc2c2c1CCC2	9.1%
O=C(c1ccc([N+](=O)[O-])cc1)N1CCN(Cc2ccccn2)CC1	-17.2%
O=C(O)c1ccc(CN2CCOCC2)cc1	13.7%

SMILES	displacement
CC1(C)CC(NC(=O)c2cccc(Cl)c2)CC(C)(C)N1	-7.3%
CC1(C)Cc2ccccc2/C(=C/C(=S)Nc2ccccc2)N1	-25.1%
COc1ccc(CSc2nnc(C)s2)cc1F	-4.9%
CC(=O)Nc1ccc2oc(-c3ccc(Cl)cc3)nc2c1	-10.4%
CCN(C(=O)c1ccc(Cl)c([N+](=O)[O-])c1)c1ccccc1	-7.3%
CC1CCN(S(=O)(=O)c2ccc(N)cc2)CC1	-20.9%
Cc1ccc(N2C(=O)c3ccccc3NC2c2cccc(O)c2)cc1 (stereo unspecified)	7.4%
C=C(C)Cn1c(-c2ccccc2)n[nH]c1=S	-1.7%
NC(=O)C1=CN(Cc2ccccc2)C=CC1	30.2%
C=CCN1C(=O)C(Cc2ccc(OCC)cc2)SC1=Nc1ccc(C(=O)O)cc1 (stereo unspecified)	-2.4%
COc1ccc(Cl)cc1NC(=O)c1cc(-c2ccccc2Cl)nc2ccccc12	-2.5%
Cc1ccc(-c2cc(NC(=O)c3ccc(Cl)cc3Cl)n[nH]2)cc1	9.9%
O=C(Cc1ccc([N+](=O)[O-])cc1)Nc1cccc(-c2nc3ccccc3o2)c1	-18.6%
Cc1ccc(N2NC(=O)/C(=C/c3cccc(Br)c3)C2=O)cc1	12.6%
CCOC(=O)CSc1nnc2c3ccccc3n(CC)c2n1	-10.4%
COc1cc(/C=N/NC(=O)CNC(=O)/C=C/c2ccco2)ccc1O	1.2%
COC(=O)C1=CN(Cc2cccs2)C=C(C(=O)OC)C1c1cccs1	2.4%
Cc1cc2nc(-c3ccc(C)c(NC(=O)c4ccco4)c3)oc2cc1C	-5.2%
O=C(N/N=C(/C=C/c1ccccc1[N+](=O)[O-])c1ccccc1)c1ccc(O)cc1	-1.7%
COc1cccc(NC2=CC(=O)CC(c3ccccc3)C2)c1 (stereo unspecified)	9.3%
CCOC(=O)c1conc1-c1ccc(N(CC)CC)cc1	2.7%
Cc1cccnc1N(C(=O)c1ccccc1F)C(=O)c1ccccc1F	-2.2%
Cc1ccccc1C(=O)Nc1c(C(=O)N2CCN(Cc3ccccc3)CC2)cnn1-c1ccccc1	-11.9%

SMILES	displacement
Cc1cccc(NC(=O)C(=O)NCCC(C)C)c1	7.8%
O=C(O)CCCCCN1C(=O)C(O)=C(C(=O)/C=C/c2ccccc2)C1c1ccc2c(c1)OCO2 (stereo unspecified)	-2.6%
CCC1(C)CC(CC(=O)O)(c2ccc(C)cc2)CCO1 (stereo unspecified)	-0.2%
CCOC(=O)C1=C(C)NC(=O)NC1c1cc([N+](=O)[O-])ccc1OC (stereo unspecified)	-1.6%
Cc1nc2ccccc2nc1-c1ccc([N+](=O)[O-])cc1	18.9%
Cc1ccc(NC(=O)C(=O)NCCCO)cc1	13.2%
CN(C)c1nc(N(C)C)nc(N2CC(=O)N(c3ccccc3)C2=N)n1	5.1%
O=C1C2C(c3ccccc3)C=CC(c3ccccc3)C2C(=O)N1c1ccc2c(c1)oc1ccccc12 (stereo unspecified)	-13.5%
COc1ccccc1C1C(C(C)=O)=C(O)C(=O)N1CC1CCCO1 (stereo unspecified)	-4.6%
O=C1c2ccccc2C2(O)OC(c3ccccc3)=C(c3nc4ccccc4s3)C12O (stereo unspecified)	7.9%
COc1ccc(C(=O)Nc2ccc(N(C)C(C)=O)cc2)cc1	-10.8%
CCOC(=O)c1c(NC(=O)c2cc3ccccc3o2)sc2c1CCC(C)C2 (stereo unspecified)	-4.7%
CC(C)OC(=O)c1ccc(NC(=O)c2cccc(Br)c2)cc1	69.2%
Cc1ccc(C(=O)Nc2cccc([N+](=O)[O-])c2C)cc1C	6.8%
Brc1ccc(OCCCCCn2ccnc2)cc1	-7.3%
CCCCOC(=O)c1cccc(NC(=O)/C=C/c2ccc(OC)cc2)c1	-15.7%
Cc1ccc(-c2nc3c(c(-c4ccc(C)cc4)n2)CCCC3)cc1	-6.2%
COC(=O)CN1C(=O)/C(=C\c2ccccc2F)SC1=S	-4.4%
N#CC1=C(SCC(=O)Nc2ccc(Br)cc2)NC(=O)CC1c1cccc2ccccc12 (stereo unspecified)	-4.2%
O=C(NC1CCCCC1)O/N=C\c1ccc(Br)cc1	-0.6%
COCCNCCOc1ccc(Br)cc1	9.9%
Cc1cc(C)n(S(=O)(=O)c2ccc(I)cc2C)n1	13.8%
CCOC(=O)C1=C(c2ccccc2)OC(N)=C(C#N)C1C1CCCCC1 (stereo unspecified)	-15%

SMILES	displacement
COc1ccccc1/C=C1\SC(=S)N(CC(C)C)C1=O	9.8%
Cc1ccc(N2C(=O)/C(=C/c3ccc(Cl)cc3)SC2=S)cc1C	10.6%
CCOc1cc(OCC)cc(C(=O)Nc2ccc(O)c(-c3nc4cc(C)c(C)cc4o3)c2)c1	11.9%
O=C1C2C3C=CC(CC3)C2C(=O)N1c1ccc(F)cc1 (stereo unspecified)	13.2%
Nc1ncc2c(n1)CC(c1ccccc1)CC2=O (stereo unspecified)	5.4%
O=c1/c(=C/c2cccc(Br)c2)sc2nc3ccccc3n12	14.5%
Cc1cccc(C2(c3cccc(C)c3)CC2C(=O)NCc2ccco2)c1 (stereo unspecified)	1.8%
O=[N+]([O-])c1cccc(CNC23CC4CC(CC(C4)C2)C3)c1	3.1%
NC(=O)CN1C(=O)/C(=C2\SC(=S)N(CCCC(=O)O)C2=O)c2ccccc21	11.2%
O=C(O)c1ccccc1SCCCN1C(=O)c2ccccc2C1=O	-6.6%
O=C(O)c1ccc(S(=O)(=O)c2ccc3c(c2)C(=O)N(c2ccc(O)cc2)C3=O)cc1	6.1%
CCc1ccc(N2C(=O)NC(=O)/C(=C\c3ccc(O)c(OC)c3)C2=O)cc1	4.5%
COc1ccccc1NC(=O)CC1S/C(=N\N=C(/C)c2ccc(F)cc2)NC1=O (stereo unspecified)	-3.3%
CCOC(=O)C1=C(C)NC(=O)NC1c1sccc1C (stereo unspecified)	-18.7%
O=C(COc1ccc(Cl)cc1)Nc1cccc(-c2nc3cc(Cl)ccc3o2)c1	25.2%
O=C(NNS(=O)(=O)c1ccc(Br)cc1)c1cccs1	-5.3%
COc1cc(/C=C2\SC(N)=NC2=O)c([N+](=O)[O-])cc1OC	22.6%
O=C(/C=C/c1ccc2c(c1)OCO2)c1cccc(Br)c1	1.3%
CN1C(=O)/C(=C2\SC(=S)N(NC(=O)c3cccnc3)C2=O)c2ccccc21	0.4%
